Experimental data reported in paper PMC7819943, “Rice protein-binding microarrays: a tool to detect cis-acting elements near promoter regions in rice”.
This is one part of the list.

biological target: T1, OsWOX13 (Oryza sativa, UniProt Q5QMM3 1-267); experiment: protein-binding microarray (RPBM); PBS, 2% BSA, 51.3 ng/ul salmon testes DNA, 50 uM zinc acetate, 200 nM TF, 25 C, 1 h; high values mean tight binding; details: protein: recombinant; tags: N-terminal polyhistidine and DsRed monomer fusion (pET32a); label: CyDye5-dUTP incorporated in the synthesized complementary strand; 3' TTTTT single-stranded linker to array surface; dsDNA, one strand shown
T1 sequence: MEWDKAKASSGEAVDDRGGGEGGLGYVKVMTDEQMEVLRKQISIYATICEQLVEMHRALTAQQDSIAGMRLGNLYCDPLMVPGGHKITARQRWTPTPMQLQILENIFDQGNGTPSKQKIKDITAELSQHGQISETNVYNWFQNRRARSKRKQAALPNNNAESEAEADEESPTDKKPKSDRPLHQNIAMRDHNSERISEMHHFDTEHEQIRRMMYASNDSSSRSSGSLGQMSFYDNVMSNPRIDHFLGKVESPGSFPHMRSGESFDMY
How it was run: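 Transcription factors were each fused at the N-terminus to a polyhistidine tag plus DsRed and expressed in E. coli BL21-CodonPlus before Ni–NTA purification. Binding to a double-stranded custom Agilent array was carried out with 200 nM protein at 25 °C for 1 h in PBS, 2% BSA, salmon testes DNA and 50 µM zinc acetate. The binding signal is per-feature fluorescence intensity, in arbitrary units, on an Axon 4000B scanner.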

With “GTAAATTGCCATCAGAAACAAGTATTTCAGACGCAATACGCGGAGTCACCTAGTGCAG” as the sequence, how does the binding signal read?
The binding signal was 17300 fluorescence intensity (a.u.).

Which binding signal does the source give for “ATCATATAATGATCAATCTGTGAAGAAGGAAGTACAATCCCGGAGTCACCTAGTGCAG” here?
Its binding signal is 6930 fluorescence intensity (a.u.).

“ATAAGGCTATTGACTTGATTGATGAAGCAGGATCTCGTGTCGGAGTCACCTAGTGCAG” was tested. Which binding signal did it give?
Its binding signal is 30100 fluorescence intensity (a.u.).

Which binding signal does the source give for “ATAGAAATCAATCTTGATTTGTTGTATGCATGTGGGGCATCGGAGTCACCTAGTGCAG” here?
Its binding signal is 32600 fluorescence intensity (a.u.).

“AACCAAAATGGGGAATCAATCAAGCAGCTGTTTGCTAGCTCGGAGTCACCTAGTGCAG” was tested. Which binding signal did it give?
The binding signal was 15100 fluorescence intensity (a.u.).

Which binding signal does the source give for “AAAACCAATGATAATCATGTATGATTTTAAAATCTCAATGCGGAGTCACCTAGTGCAG” here?
Its binding signal is 10900 fluorescence intensity (a.u.).

How did the binding signal turn out when “CTGATCCTTCTTAATCCAATCACTGGCGAACAGATTGCATCGGAGTCACCTAGTGCAG” was run?
Its binding signal is 9250 fluorescence intensity (a.u.).

How did the binding signal turn out when “TCAGCTAATCAGCTAACTGGTCCTTTTCCTACTTCCCTTGCGGAGTCACCTAGTGCAG” was run?
Its binding signal is 8010 fluorescence intensity (a.u.).

Which binding signal does the source give for “ATGAATTGATGAAAGCTTCAGTGCAGTTGATTCCCAAGTACGGAGTCACCTAGTGCAG” here?
The binding signal was 14600 fluorescence intensity (a.u.).

Which binding signal does the source give for “GTAGATAGATGGCACATTGGCAGTGATGGCTGTGTACAGTCGGAGTCACCTAGTGCAG” here?
The binding signal was 8260 fluorescence intensity (a.u.).

Which binding signal does the source give for “GTGATGAATTAATGACAAAGTCTCCCTTGGCGGCAAGCCACGGAGTCACCTAGTGCAG” here?
Its binding signal is 10200 fluorescence intensity (a.u.).

For “GTGATGGACAAATTGCTAGTCACAAAGTATAGCAAAGTTACGGAGTCACCTAGTGCAG”, which binding signal is on record?
Its binding signal is 9420 fluorescence intensity (a.u.).

With “CATGACATACAATTTATCAGATCCAATTTTAGGATTATTCCGGAGTCACCTAGTGCAG” as the sequence, how does the binding signal read?
The binding signal was 10900 fluorescence intensity (a.u.).

For “GGAAGACAATTTTACCATAATTTGGGTGGAGGGGTGTTGGCGGAGTCACCTAGTGCAG”, which binding signal is on record?
The binding signal was 3660 fluorescence intensity (a.u.).

“AAATTTATGTAATTATAATTTATTTTATTATGACTTGATTCGGAGTCACCTAGTGCAG” was tested. Which binding signal did it give?
The binding signal was 24300 fluorescence intensity (a.u.).

With “TCAACAAATGCACAATCAACAACAAACAGTTCTTGCAATTCGGAGTCACCTAGTGCAG” as the sequence, how does the binding signal read?
The binding signal was 4050 fluorescence intensity (a.u.).

With “GCACCTGATTGGTCCGTCGCGTGCTCCCACGGATCGCCCCCGGAGTCACCTAGTGCAG” as the sequence, how does the binding signal read?
Its binding signal is 6790 fluorescence intensity (a.u.).

How did the binding signal turn out when “CCCTGATTTCTCCCAAACCAAAACCAACCAAACCTCGCGGCGGAGTCACCTAGTGCAG” was run?
Its binding signal is 17200 fluorescence intensity (a.u.).

For “GCGAAACAATTCTGATTTACTTGATTTAACATGCAACATTCGGAGTCACCTAGTGCAG”, which binding signal is on record?
Its binding signal is 14800 fluorescence intensity (a.u.).

For “TTAAAATTCAATCAATCATATGTTAATACCACATAATTTTCGGAGTCACCTAGTGCAG”, which binding signal is on record?
The binding signal was 10400 fluorescence intensity (a.u.).

With “AATTAAGATTGGTATTCTTATGCTTACCATGTTATCTTTTCGGAGTCACCTAGTGCAG” as the sequence, how does the binding signal read?
The binding signal was 6720 fluorescence intensity (a.u.).

How did the binding signal turn out when “CGAAATTGAAGCGCGTATGACCAAAGTTTGCTACTCGTGCCGGAGTCACCTAGTGCAG” was run?
The binding signal was 31000 fluorescence intensity (a.u.).

Which binding signal does the source give for “CCCATTGCCTTCCTTCTTGCCCAATTCACTCCACCATACTCGGAGTCACCTAGTGCAG” here?
Its binding signal is 4870 fluorescence intensity (a.u.).

For “TGGATCCTGATTGGATCCTGATTGGCGTTGCGGCCGTGTCCGGAGTCACCTAGTGCAG”, which binding signal is on record?
The binding signal was 65000 fluorescence intensity (a.u.).

How did the binding signal turn out when “GACTTATAATTAGTCTAAACAACAAAGCCCTAAGCAGTAACGGAGTCACCTAGTGCAG” was run?
Its binding signal is 7840 fluorescence intensity (a.u.).

How did the binding signal turn out when “ACAACCCATTCATATGATCAATTGATCATGTTATTACAAGCGGAGTCACCTAGTGCAG” was run?
Its binding signal is 3830 fluorescence intensity (a.u.).

Which binding signal does the source give for “AACTTAATTTTGACATTGATTTTGAGATATTTTCAATGTACGGAGTCACCTAGTGCAG” here?
The binding signal was 27200 fluorescence intensity (a.u.).

Which binding signal does the source give for “TGCAAAATTTCTATGATTGCTAACCTATCCTGCTGGATTTCGGAGTCACCTAGTGCAG” here?
The binding signal was 28900 fluorescence intensity (a.u.).

Which binding signal does the source give for “TGTCACAAATCTAATGGTATAATTAGTTCATAGTTCGGATCGGAGTCACCTAGTGCAG” here?
The binding signal was 8340 fluorescence intensity (a.u.).

For “GAAAATTATTTTCCTATCCCATTATCCAAACAATGCCTAACGGAGTCACCTAGTGCAG”, which binding signal is on record?
The binding signal was 5700 fluorescence intensity (a.u.).

How did the binding signal turn out when “ATCAGGGCCTTAATTAACTCCAAACCTGATAGAGTGGCAGCGGAGTCACCTAGTGCAG” was run?
Its binding signal is 6480 fluorescence intensity (a.u.).

How did the binding signal turn out when “TCGCAGATAATTATGGCCCCGTTAATATGGGGAATAGGTCCGGAGTCACCTAGTGCAG” was run?
Its binding signal is 14800 fluorescence intensity (a.u.).

“TTTCAAATTAAATTTTGGCAGCGGCTTAATTATAAGCTAGCGGAGTCACCTAGTGCAG” was tested. Which binding signal did it give?
The binding signal was 12600 fluorescence intensity (a.u.).

“GCTTAATTGATTAATTTGCTGGACGAGGAATCTTCTATGTCGGAGTCACCTAGTGCAG” was tested. Which binding signal did it give?
Its binding signal is 64600 fluorescence intensity (a.u.).

How did the binding signal turn out when “TAGTGTAATTTAACACTTAATTAGCCACATTTGTTACACACGGAGTCACCTAGTGCAG” was run?
Its binding signal is 61900 fluorescence intensity (a.u.).

Which binding signal does the source give for “GCATCTACTCTGTGCCAATCACCGGGCATATATACATGGTCGGAGTCACCTAGTGCAG” here?
Its binding signal is 5930 fluorescence intensity (a.u.).

For “ATTGCAAATTGGACACTAGAGAATGTGGTACCAATTCGGGCGGAGTCACCTAGTGCAG”, which binding signal is on record?
The binding signal was 11800 fluorescence intensity (a.u.).

Which binding signal does the source give for “TTTCCAATCTATTGCTATACTAGTATGACAACTCAATCTCCGGAGTCACCTAGTGCAG” here?
The binding signal was 6860 fluorescence intensity (a.u.).

With “TGAGCTATTAGATTGGTTATAGATGAATTGAAGTTAGTAGCGGAGTCACCTAGTGCAG” as the sequence, how does the binding signal read?
Its binding signal is 14100 fluorescence intensity (a.u.).

With “AATACTAGTAATTAAGTTAACTCCGTTCCTGTCATACCAACGGAGTCACCTAGTGCAG” as the sequence, how does the binding signal read?
Its binding signal is 11100 fluorescence intensity (a.u.).

Which binding signal does the source give for “GCTCTAATTGGCTATCTGTACATCTGTTTGTTATTCTAATCGGAGTCACCTAGTGCAG” here?
The binding signal was 37100 fluorescence intensity (a.u.).

Which binding signal does the source give for “AAAATCACTGATAGATATGTGATTTTCGTTTTGAGGGTCTCGGAGTCACCTAGTGCAG” here?
The binding signal was 40900 fluorescence intensity (a.u.).
